According to PubChem BioAssay (NCATS):
Values joined by “and” are separate entries in the source; they are usually repeats but may differ in a detail not shown here. Identical values can stand only once. Inconclusive means that the source gave no clear call. Such entries were picked first, then a sample of the others. Potencies of inconclusive entries are doubtful fits and often do not repeat. Active and inactive are the calls of the source. The call rests on the fitted dose curve; in most records, active means well fitted activation curve with a large enough effect; inconclusive means small, poorly fitted or top-dose-only effect; inactive means no such curve, though single readings can be large or run the other way.
Potency means the concentration at half of the fitted maximal effect; tags describe the fitted curve by direction and shape.

The molecules below were run against Cellular tumor antigen p53 (Homo sapiens) (UniProt P04637) (assay: Primary qHTS for small molecule compounds that upregulate eGFP-tagged delta133p53alpha (in N-terminal) cells. (AID 2060322; further: nearly all actives have a fitted effect of over 75% in size;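 on activation: series mostly up to about 56 µM; 0% = DMSO vehicle and 100% = reference activator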)). Settings: NCI-H358 eGFP-delta133p53alpha fluorescence, 24 h; activation: hits give high values.
Chain of UniProt P04637 (P04637 whole entry, looked up): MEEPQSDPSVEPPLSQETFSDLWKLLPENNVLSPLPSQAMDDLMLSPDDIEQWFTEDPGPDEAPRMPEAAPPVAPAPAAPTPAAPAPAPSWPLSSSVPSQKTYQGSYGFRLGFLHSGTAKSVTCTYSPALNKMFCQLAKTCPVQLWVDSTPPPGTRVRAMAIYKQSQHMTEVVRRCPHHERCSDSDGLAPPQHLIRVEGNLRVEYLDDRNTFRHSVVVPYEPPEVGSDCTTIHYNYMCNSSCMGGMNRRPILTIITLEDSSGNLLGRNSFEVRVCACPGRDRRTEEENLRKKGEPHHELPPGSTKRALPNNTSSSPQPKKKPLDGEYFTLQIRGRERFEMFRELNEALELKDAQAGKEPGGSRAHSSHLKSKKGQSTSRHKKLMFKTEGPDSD
Procedure, shortened: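 NCI-H358 cells pre-induced 24 h with 10 ng/ml doxycycline to express N-terminal eGFP-delta133p53alpha, then dosed 24 h at 37C without doxycycline; fixed, Hoechst-stained, GFP intensity by laser scanning cytometry, normalized to DMSO (0%) and 57.5 uM 5-azacytidine (100%).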
In the case of O=C(c1ccccc1)c1ccc2nc(NC(=O)c3csc(C4CCN(c5ncnc6ccsc56)CC4)n3)[nH]c2c1, the Potency is reported as inconclusive: 26.9 µM [activator, single point].
In the case of O=C(O)Cn1cnnn1, the activation is reported as inactive: -6.21%.
With C=C1C[C@]23C[C@H]1CC[C@H]2[C@]1(C)CCC[C@@]2(CO)C(=O)O[C@H]([C@H]21)[C@@H]3O the activation was inactive: -6.11%.
O[C@@H](CNC[C@H](O)[C@H]1CCc2cc(F)ccc2O1)[C@@H]1CCc2cc(F)ccc2O1 was tested, and the Potency was inconclusive: 24.3 µM [activator, single point] and inconclusive: 19.5 µM [activator, partial curve, poor fit].
With C/C=C(\C)[C@@H]1C(C)=C[C@@H]2[C@H]([C@@H]1/C=C/C=C/C(=O)O)[C@@H](C)CC[C@@H]2O the Potency was inconclusive: 3.3 µM [activator, full curve, poor fit].
With O=C(Nc1ncc(SCCN2CCCC2)s1)C1(c2ccc(S(=O)(=O)C3CC3)cc2)CC1C1CCCCC1 (stereo not given) the Potency was inconclusive: 30.1 µM [activator, single point].
COCC(=O)Nc1c(I)c(C(=O)NCC(O)CO)c(I)c(C(=O)N(C)CC(O)CO)c1I (stereo not given) was tested, and the activation was inactive: -4.18%.
c1ccc(C2CN3CCSC3=N2)cc1 (stereo not given) was tested, and the activation was inactive: 27%.
For C[N+](C)(CCOc1ccccc1)Cc1cccs1, the Potency was inconclusive: 38.9 µM [activator, single point].
With C=C(C=O)[C@]1(O)C[C@@]2(C)C(=CC1=O)C=C[C@H](OC(=O)/C=C/C=C/[C@H](C)CC)[C@@H]2C the Potency was active: 4.65 µM.
Cc1ccc(C)c(S(=O)(=O)n2cnc3ccccc32)c1 was tested, and the activation was inactive: 1%.
For CC(C)C1(O[C@@H]2O[C@H](CO)[C@@H](O)[C@H](O)[C@H]2O)CC=C(CO)CC1 (stereo not given in full), the activation was inactive: 17.9%.
In the case of O=S(=O)(c1ccccc1)c1cnc2c(N3CCNCC3)cccc2c1, the activation is reported as inactive: 27%.
C=C1C(=O)O[C@@H]2/C=C(/C)[C@@H](OC(C)=O)C/C=C(\C)C[C@@H](OC(=O)/C(=C/CO)CO)[C@@H]12 was tested, and the Potency was inconclusive: 18.5 µM [activator, single point].
For CC(=O)O[C@@H]1C[C@]2(C)[C@@]3(CCC4[C@@]5(C)CC[C@H](O[C@@H]6O[C@H](C(=O)O)[C@@H](O)[C@H](O[C@@H]7O[C@H](CO)[C@H](O)[C@H](O)[C@H]7O[C@@H]7O[C@@H](C)[C@H](O)[C@@H](O)[C@H]7O[C@@H]7OC[C@](O)(CO)[C@H]7O)[C@H]6O[C@@H]6O[C@H](CO)[C@H](O)[C@H](O)[C@H]6O)C(C)(C)C5CC[C@]42C)O[C@@H](O)[C@]12C3CC(C)(C)[C@@H](OC(=O)/C=C/c1ccc(O)c(O)c1)[C@@H]2OC(=O)/C=C/c1ccccc1 (stereo not given in full), the Potency was inconclusive: 0.804 µM [activator, partial curve].
For C=C1C(=O)O[C@@H]2C/C(C)=C\C(=O)/C=C(\C)[C@@H](OC(=O)/C(C)=C\C)[C@H](O)[C@@H]12, the Potency was active: 5.88 µM.
For Cc1cccc(C)c1NC(=O)C(C)N (stereo not given), the activation was inactive: 10.9% and inactive: -14%.
With C=C(C)C(=O)OC1[C@@H]2C(=C)C(=O)O[C@@H]2C[C@@H](C)[C@@H]2C=CC(=O)[C@@]12C (stereo not given in full) the Potency was inconclusive: 23.4 µM [activator, single point].
For CC(C)C[C@H](C(=O)O)c1cc(-c2ccc(C(F)(F)F)cc2)cc(-c2ccc(C(F)(F)F)cc2)c1, the Potency was inconclusive: 37.9 µM [activator, single point].
With C=CS(=O)(=O)NC1CCN(C(=O)CNc2cc(I)c(Cl)cc2OC)CC1 the Potency was inconclusive: 23.9 µM [activator, single point].
With COc1c(N2C[C@@H]3CCCN[C@@H]3C2)c(F)cc2c(=O)c(C(=O)O)cn(C3CC3)c12 the activation was inactive: 4.18%.
For C/C1=C\CCC2=CC(OC2=O)C(C)(C)/C=C/C1=O (stereo not given), the Potency was inconclusive: 37.9 µM [activator, single point].
CC(=O)O[C@@H]1C(=O)O[C@@H]2[C@H]1OC(=O)[C@@H]2OC(C)=O was tested, and the Potency was inconclusive: 1.2 µM [activator, single point].
In the case of Cc1coc2ccccc2c1=O, the Potency is reported as inconclusive: 4.37 µM [activator, single point].
In the case of Cc1ccc(NC2=CC(=O)c3sc(C)nc3C2=O)cc1, the Potency is reported as active: 3.85 µM.
